Data from the supplement of paper PMC4967469.
pIC50: −log10 of the molar value. Lines with a small IC50 respond at low doses; a fit beyond the top or the lowest dose is shown as a bound at that dose. For AUC the same curve is integrated over the 256-fold range of doses and scaled to a fraction; values near 1 show little effect. For some of these results: Where the top dose is marked as inferred, it is not printed in the source and was worked back from the curve model. For some of these results: Where an entry number is given, a second screen of the drug exists; the two often differ.

Experiments:
Experiment in all cases: Viability of human cancer cell lines after 72 h of drug (GDSC screen)
RDEA119 = compound: COc1cc(F)c(F)c(Nc2ccc(I)cc2F)c1NS(=O)(=O)C1(C[C@H](O)CO)CC1 [RDEA119]; settings: top dose 5 µM, top dose inferred
Method: (§1)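 Human cancer cell lines in 384-well plates, medium with 10% serum, drug for 72 h over a 256-fold dose range (nine 2-fold or five 4-fold steps up to the top dose). Adherent lines were fixed and stained with the nucleic acid dye Syto60, suspension lines read with resazurin; signal relative to control wells, capped at 0 and 100%. One two-parameter sigmoid per drug and line, fitted in a mixed model over all curves with the slope shared within a line.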

OSU-03012 = compound: NCC(=O)Nc1ccc(-n2nc(C(F)(F)F)cc2-c2ccc3c(ccc4ccccc43)c2)cc1 [OSU-03012]; settings: top dose 16 µM; top dose inferred
Method: as §1

5-Fluorouracil = compound: O=c1[nH]cc(F)c(=O)[nH]1 [5-Fluorouracil]; settings: top dose 32 µM; top dose inferred
Method: as §1

CUDC-101 = compound: C#Cc1cccc(Nc2ncnc3cc(OC)c(OCCCCCCC(=O)NO)cc23)c1 [CUDC-101]; settings: top dose 5.12 µM; top dose inferred
Method: as §1

AC220 = compound: CC(C)(C)c1cc(NC(=O)Nc2ccc(-c3cn4c(n3)sc3cc(OCCN5CCOCC5)ccc34)cc2)no1 [AC220]; settings: top dose 1.024 µM; top dose inferred
Method: as §1

QS11 = compound: OC[C@H](Cc1ccccc1)Nc1nc(Oc2ccc3c(c2)CCC3)nc2c1ncn2Cc1ccc(-c2ccccc2)cc1 [QS11]; settings: top dose 10.24 µM
Method: as §1

JNK-9L = compound: Fc1cc(-c2ccnc(Nc3ccc(-n4cnc(N5CCOCC5)n4)cc3)n2)cc(N2CCOCC2)c1 [JNK-9L]; settings: top dose 5.12 µM; top dose inferred
Method: as §1

## LC-1-sq (lung squamous cell carcinoma, adherent)
RDEA119; screen: GDSC drug entry 1014
  AUC: 0.894
  pIC50: < 5.30
RDEA119; screen: GDSC drug entry 1526
  AUC: 0.971
  pIC50: < 5.30
OSU-03012
  AUC: 0.867
  pIC50: < 4.80
5-Fluorouracil
  AUC: 0.958
  pIC50: < 4.49
CUDC-101
  AUC: 0.802
  pIC50: 5.52
AC220
  AUC: 0.983
  pIC50: < 5.99
QS11
  AUC: 0.977
  pIC50: < 4.99
JNK-9L
  AUC: 0.738
  pIC50: 5.76

## EFO-21 (ovary, adherent)
RDEA119; screen: GDSC drug entry 1014
  AUC: 0.908
  pIC50: < 5.30
RDEA119; screen: GDSC drug entry 1526
  AUC: 0.941
  pIC50: < 5.30
OSU-03012
  AUC: 0.84
  pIC50: < 4.80
5-Fluorouracil
  AUC: 0.854
  pIC50: < 4.49
CUDC-101
  AUC: 0.786
  pIC50: 5.47
AC220
  AUC: 0.968
  pIC50: < 5.99
QS11
  AUC: 0.941
  pIC50: < 4.99
JNK-9L
  AUC: 0.662
  pIC50: 5.96

## SW1271 (small cell lung carcinoma, adherent)
RDEA119; screen: GDSC drug entry 1014
  AUC: 0.763
  pIC50: 5.69
RDEA119; screen: GDSC drug entry 1526
  AUC: 0.72
  pIC50: 5.84
OSU-03012
  AUC: 0.712
  pIC50: 5.36
5-Fluorouracil
  AUC: 0.897
  pIC50: < 4.49
CUDC-101
  AUC: 0.56
  pIC50: 6.32
AC220
  AUC: 0.983
  pIC50: < 5.99
QS11
  AUC: 0.917
  pIC50: < 4.99
JNK-9L
  AUC: 0.484
  pIC50: 6.54

## LB771-HNC (head and neck, adherent)
RDEA119; screen: GDSC drug entry 1014
  AUC: 0.969
  pIC50: < 5.30
RDEA119; screen: GDSC drug entry 1526
  AUC: 0.848
  pIC50: < 5.30
OSU-03012
  AUC: 0.813
  pIC50: 4.94
5-Fluorouracil
  AUC: 0.928
  pIC50: < 4.49
CUDC-101
  AUC: 0.964
  pIC50: < 5.29
AC220
  AUC: 0.982
  pIC50: < 5.99
QS11
  AUC: 0.742
  pIC50: 5.42
JNK-9L
  AUC: 0.328
  pIC50: 7.03

## RH-41 (rhabdomyosarcoma, adherent)
RDEA119; screen: GDSC drug entry 1014
  AUC: 0.992
  pIC50: < 5.30
RDEA119; screen: GDSC drug entry 1526
  AUC: 0.958
  pIC50: < 5.30
OSU-03012
  AUC: 0.808
  pIC50: 5.18
5-Fluorouracil
  AUC: 0.907
  pIC50: 4.50
CUDC-101
  AUC: 0.847
  pIC50: 5.54
AC220
  AUC: 0.992
  pIC50: < 5.99
QS11
  AUC: 0.946
  pIC50: < 4.99
JNK-9L
  AUC: 0.626
  pIC50: 6.18

## HT-3 (cervix, adherent)
RDEA119; screen: GDSC drug entry 1014
  AUC: 0.839
  pIC50: 5.46
RDEA119; screen: GDSC drug entry 1526
  AUC: 0.878
  pIC50: < 5.30
OSU-03012
  AUC: 0.816
  pIC50: 5.04
5-Fluorouracil
  AUC: 0.874
  pIC50: < 4.49
CUDC-101
  AUC: 0.635
  pIC50: 6.12
AC220
  AUC: 0.973
  pIC50: < 5.99
QS11
  AUC: 0.911
  pIC50: < 4.99
JNK-9L
  AUC: 0.48
  pIC50: 6.55

## NCI-H2009 (lung adenocarcinoma, adherent)
RDEA119; screen: GDSC drug entry 1014
  AUC: 0.685
  pIC50: 5.97
RDEA119; screen: GDSC drug entry 1526
  AUC: 0.813
  pIC50: 5.54
OSU-03012
  AUC: 0.611
  pIC50: 5.69
5-Fluorouracil
  AUC: 0.926
  pIC50: < 4.49
CUDC-101
  AUC: 0.905
  pIC50: < 5.29
AC220
  AUC: 0.986
  pIC50: < 5.99
QS11
  AUC: 0.912
  pIC50: < 4.99
JNK-9L
  AUC: 0.527
  pIC50: 6.42

## SK-N-DZ (neuroblastoma, adherent)
RDEA119; screen: GDSC drug entry 1526
  AUC: 0.987
  pIC50: < 5.30
OSU-03012
  AUC: 0.801
  pIC50: 5.11
5-Fluorouracil
  AUC: 0.779
  pIC50: 4.89
CUDC-101
  AUC: 0.766
  pIC50: 5.73
AC220
  AUC: 0.988
  pIC50: < 5.99
QS11
  AUC: 0.72
  pIC50: 5.58
JNK-9L
  AUC: 0.778
  pIC50: 5.69

## CL-11 (large intestine, adherent)
RDEA119; screen: GDSC drug entry 1014
  AUC: 0.509
  pIC50: 6.48
RDEA119; screen: GDSC drug entry 1526
  AUC: 0.406
  pIC50: 6.78
OSU-03012
  AUC: 0.864
  pIC50: < 4.80
5-Fluorouracil
  AUC: 0.947
  pIC50: < 4.49
CUDC-101
  AUC: 0.907
  pIC50: < 5.29
AC220
  AUC: 0.986
  pIC50: < 5.99
QS11
  AUC: 0.979
  pIC50: < 4.99
JNK-9L
  AUC: 0.913
  pIC50: < 5.29
